From patent US20070167608A1, “Sugar chain structure profiling techniques” (priority 2003, published 2007)

Tested on: lectin-sugar chain interaction
Experiment: Lectin array in the presence of competitively inhibiting sugar
Conditions: Cy3-ASF probe, increasing lactose concentration

OC[C@H]1O[C@@H](O[C@H]2[C@H](O)[C@@H](O)C(O)O[C@@H]2CO)[C@H](O)[C@@H](O)[C@H]1O (stereo partly shown) [lactose]
Fluorescence intensity of the spots in the presence of lactose: decrease as the concentration of inhibiting sugar increased
